Reference: article PMC8422164, “A comparison of three mucus-secreting airway cell lines (Calu-3, SPOC1 and UNCN3T) for use as biopharmaceutical models of the nose and lung” (European Journal of Pharmaceutics and Biopharmaceutics, 2021)
Structures can show the parent of a compound that is named as a salt.

Key:
[1] = system: SPOC1 cells; assay: Mucin secretion (ELLA) in response to inhaled drugs, SPOC1 on Geltrex-coated plastic; type: cell-based, rat
Experimental: Wells were then washed three times with phosphate buffered saline (PBS) containing 0.05 % v/v Tween, 0.5 % w/v bovine gelatin type B (Sigma Aldrich), and blocked by incubation with PBS containing 1.0 % w/v gelatin at 37 °C for 1 h. […] Wells with samples from UNC[…] cells were incubated with biotinylated-Helix pomatia agglutinin prepared in the blocking solution. These wells were then washed before incubation with HRP-labelled streptavidin. Finally, plates containing samples from all cell lines were washed repeatedly and developed by the addition of substrate solution which consisted of o-phenylene diamine (Sigma […] tablet) prepared according to manufacturer's instructions, for 3 min at room temperature, after which the reaction was terminated by the addition of 20% (v/v) H2SO4. The absorbance at 492 nm was measured using an Ascent MultiskanTM plate reader (Thermo Fisher Scientific). The absorbance of the samples was compared with known mucin standards, purified by two rounds of density gradient ultracentrifugation, as described by […] et al., from the sputum of a volunteer with chronic obstructive pulmonary disease. Ethical approval was obtained from the University of Brighton School of Pharmacy and Biomolecular Sciences Ethics Committee, under reference PABSREC 0509, and informed consent was obtained from the volunteer.

[2] = system: SPOC1 cells; assay: Enhancement of mucin secretion using AMP-PNP (Secretagogue model), ELLA, SPOC1; type: cell-based, rat; settings: for Fold increase in mucin levels: vs baseline
Experimental: Cells cultured on inserts were arbitrarily divided into two groups termed 'low mucus' and 'high mucus'. […] Plates were kept on a shock-absorbing foam pad to prevent inadvertent mechanical stimulation of mucin secretion. […] Washes were stored at 4 °C until mucin secretion could be determined using an ELLA (on the day of treatment). At 10, 20 and 30 min, three further washes were performed and the average mucin content used to establish baseline mucin secretion. […] Each AMP-PNP/TB apical solution was changed (“like for like”) at 10-minute intervals. […] Wells were then washed three times with phosphate buffered saline (PBS) containing 0.05 % v/v Tween, 0.5 % w/v bovine gelatin type B (Sigma Aldrich), and blocked by incubation with PBS containing 1.0 % w/v gelatin at 37 °C for 1 h. […] Wells with samples from UNC[…] cells were incubated with biotinylated-Helix pomatia agglutinin prepared in the blocking solution. These wells were then washed before incubation with HRP-labelled streptavidin. Finally, plates containing samples from all cell lines were washed repeatedly and developed by the addition of substrate solution which consisted of o-phenylene diamine (Sigma […] tablet) prepared according to manufacturer's instructions, for 3 min at room temperature, after which the reaction was terminated by the addition of 20% (v/v) H2SO4. The absorbance at 492 nm was measured using an Ascent MultiskanTM plate reader (Thermo Fisher Scientific). The absorbance of the samples was compared with known mucin standards, purified by two rounds of density gradient ultracentrifugation, as described by […] et al., from the sputum of a volunteer with chronic obstructive pulmonary disease. Ethical approval was obtained from the University of Brighton School of Pharmacy and Biomolecular Sciences Ethics Committee, under reference PABSREC 0509, and informed consent was obtained from the volunteer.

[3] = system: SPOC1 cells; assay: TEER of SPOC1 cells with AMP-PNP
[4] = system: SPOC1 cells; assay: Cytokine release (ELISA) in response to inhaled drugs, SPOC1; settings: for Effect on IFN-γ release / Effect on TNF-α release / Effect on IL-6 release: SPOC1, drug 5-50 μM, 30 min; for Effect on IL-6 release: salbutamol significant at 50 μM
[5] = SPOC1, drug at 50 μM, compared to controls

Nc1ncnc2c1ncn2[C@@H]1O[C@H](COP(=O)([O-])OP(=O)([O-])NP(=O)([O-])[O-])[C@@H](O)[C@H]1O.[Li+].[Li+].[Li+].[Li+] [AMP-PNP, adenylyl-imidodiphosphate, tetralithium salt]
Mucin secretion ([1]; SPOC1 on Geltrex-coated plastic, AMP-PNP 100 μM, 30 min, control 0.94 ± 0.04): 3.82 ± 0.21 ng/well | Fold increase in mucin levels ([2]; SPOC1 on Geltrex-coated Transwell-Clear inserts, AMP-PNP 100 μM): 3.5 fold | Mucin level after AMP-PNP ([2]; SPOC1 on Geltrex-coated Transwell-Clear inserts, AMP-PNP 100 μM, baseline 1.43 ± 0.33): 5.01 ± 0.40 ng/well | Fold increase in mucin levels ([2]; SPOC1 on Transwell-COL inserts, data not shown): 3.0 fold | Mucin level after AMP-PNP ([2]; SPOC1 on Transwell-COL inserts, baseline 1.03 ± 0.16): 3.09 ± 0.48 ng/well | Effect upon TEER [3]: no discernible effect

O=S(=O)([O-])[O-].[O]=[V+2] [VOSO4, Vanadium (IV) oxide sulfate]
IFN-γ release, fold increase by positive control ([4]; SPOC1): 7 fold | TNF-α release, fold between VOSO4 and medium alone ([4]; SPOC1): 1.5 fold | TNF-α release ([4]; SPOC1, VOSO4 20 μg mL^−1, 30 min, medium alone 29.8 ± 0.5): 45.2 ± 1.6 pg/mL | IFN-γ release ([4]; SPOC1, VOSO4 20 μg mL^−1, 30 min, medium alone 43.4 ± 3.8): 308.3 ± 15.9 pg/mL | IL-6 release ([4]; SPOC1, VOSO4 20 μg mL^−1, 30 min, untreated 51.0 ± 3.7): 97.7 ± 7.4 pg/mL | IL-6 release, fold that of culture medium alone ([4]; SPOC1, positive control): 1.9 fold

CCCC1O[C@@H]2C[C@H]3[C@@H]4CCC5=CC(=O)C=C[C@]5(C)[C@H]4[C@@H](O)C[C@]3(C)[C@]2(C(=O)CO)O1 (stereo partly shown) [budesonide]
Effect on IFN-γ release [4]: No significant increase | Effect on TNF-α release [4]: No significant increase | Effect on IL-6 release [4]: No significant increase | Effect on mucin secretion ([1]; SPOC1, drug 5-50 μM): no effect

CC(C)[N+]1(C)[C@@H]2CC[C@H]1C[C@@H](OC(=O)C(CO)c1ccccc1)C2 (stereo partly shown) [ipratropium, Ipratropium bromide monohydrate]
Effect on IFN-γ release [4]: No significant increase | Effect on TNF-α release [4]: No significant increase | Effect on IL-6 release [4]: No significant increase | Effect on mucin secretion [1, 5]: significantly increased

CC(C)(C)NCC(O)c1ccc(O)c(CO)c1 (stereo not shown) [salbutamol, salbutamol sulfate]
Effect on IFN-γ release [4]: No significant increase | Effect on TNF-α release [4]: No significant increase | Effect on IL-6 release [4]: dose-dependent increase | Effect on mucin secretion [1, 5]: significantly increased

C[N+]1(C)[C@@H]2C[C@@H](OC(=O)C(O)(c3cccs3)c3cccs3)C[C@H]1[C@@H]1O[C@@H]12 [tiotropium, tiotropium bromide monohydrate]
Effect on IFN-γ release [4]: No significant increase | Effect on TNF-α release [4]: No significant increase | Effect on IL-6 release [4]: No significant increase | Effect on mucin secretion [1, 5]: significantly increased
